Whole data set: some 33,000 sequences, median “E-score (-0.5 to 0.5)” near -0.012, cut for the highest 2% near 0.29. The list shows a part of the results.
Target: T1, Ybr033w (UniProt P38073)
T1 sequence: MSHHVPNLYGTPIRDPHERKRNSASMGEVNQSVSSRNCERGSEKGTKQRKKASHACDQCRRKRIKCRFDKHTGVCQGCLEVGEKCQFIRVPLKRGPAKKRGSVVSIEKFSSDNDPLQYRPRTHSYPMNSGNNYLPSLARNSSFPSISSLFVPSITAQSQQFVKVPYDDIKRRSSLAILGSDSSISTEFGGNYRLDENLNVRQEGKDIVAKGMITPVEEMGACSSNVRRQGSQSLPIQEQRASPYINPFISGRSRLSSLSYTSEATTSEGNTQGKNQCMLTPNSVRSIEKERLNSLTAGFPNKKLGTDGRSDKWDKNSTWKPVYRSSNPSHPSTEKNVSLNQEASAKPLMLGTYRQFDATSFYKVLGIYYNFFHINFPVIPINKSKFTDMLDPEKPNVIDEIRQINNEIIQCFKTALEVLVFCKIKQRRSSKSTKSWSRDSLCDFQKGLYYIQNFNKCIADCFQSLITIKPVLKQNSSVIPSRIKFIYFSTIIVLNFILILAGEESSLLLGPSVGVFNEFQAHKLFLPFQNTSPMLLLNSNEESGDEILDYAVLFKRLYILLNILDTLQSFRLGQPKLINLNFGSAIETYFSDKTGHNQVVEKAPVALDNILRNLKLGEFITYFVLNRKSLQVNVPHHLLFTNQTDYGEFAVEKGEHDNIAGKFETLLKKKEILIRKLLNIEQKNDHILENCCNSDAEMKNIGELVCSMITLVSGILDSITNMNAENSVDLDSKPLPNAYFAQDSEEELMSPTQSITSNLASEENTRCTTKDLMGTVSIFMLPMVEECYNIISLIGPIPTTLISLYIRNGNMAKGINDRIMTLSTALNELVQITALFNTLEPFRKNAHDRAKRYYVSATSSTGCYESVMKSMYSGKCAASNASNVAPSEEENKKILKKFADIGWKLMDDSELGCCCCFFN
Assay: PBM E-score (8-mer binding enrichment) (E-score (-0.5 to 0.5)); higher = stronger / more preferred TF binding; most listed sequences are background and not binding sites
Details: protein concentration: 200 nM; construct: GST-full length
Protocol: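 Universal 'all 10-mer' protein binding microarrays (Agilent AMADID 015681) probed with GST-tagged S. cerevisiae TFs (full-length or DBD) made by in vitro transcription/translation (PURExpress), about 100-200 nM. Bound TF was detected with fluorescent anti-GST. Each ungapped 8-mer (which stands for itself and its reverse complement) is scored by the PBM enrichment score (E-score), a modified Wilcoxon-Mann-Whitney statistic from -0.5 to +0.5, computed with the Universal PBM Analysis Suite. Scale: above 0.35 generally sequence-specific binding.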

Sequence | PBM E-score
CTCCGCGC | -0.111
AGGGTCTC | -0.239
CTGCATGC | -0.0915
CGTGTGCA | -0.0791
AAACGCGC | 0.00831
CAAGTGGG | -0.0947
CACCCGTC | -0.042
ACTCACTG | 0.0718
AAGTGTAA | -0.05
CAACGGCC | -0.123
AACAACAA | 0.264
AGCCATTG | 0.119
AAAGTCAT | -0.0166
AGGACTAA | 0.0642
CACGAGGG | -0.209
GAGCGGAA | 0.191
AATGTGAC | 0.0448
AGATCCAC | 0.0307
ACAGGTAG | -0.106
AGCAAGGA | -0.0752
ACTGCGGG | -0.0222
ATCAGACG | -0.0427
AGTCGTAC | -0.0631
ATCCTCGG | 0.167
AGAATAGC | 0.129

Sequence | PBM E-score
TGGAGCAA | 0.129
ACGAGGGG | -0.254
GCGTTGAC | -0.152
CCCAATAA | 0.042
TACTGCTA | -0.0593
AGGGCCCT | -0.273
AAACACAT | 0.213
ATCTGCTC | -0.109
GCAGGTTA | -0.185
AAATGACT | 0.0631
AATGCTGA | 0.0408
GCCGCTGA | -0.0774
GTATAAGA | 0.146
GACCCTCA | -0.272
ATATACGC | 0.0817
CGAAGTCC | -0.19
TGCCCGCA | -0.0361
AGCTTACG | -0.137
CCCACCTC | -0.244
GAGACAGC | -0.111
CCAAGTCG | 0.0215
GCAGATAA | 0.118
AATTATGA | 0.256
CGCCACTA | -0.19
CGGAGACG | 0.148

Sequence | PBM E-score
CGAACTGA | -0.0653
GAACTCCA | 0.0411
TCCACAGA | 0.0534
CGCCTAAG | -0.246
ATCGTGCG | 0.214
ATTACGGG | 0.0913
AGTTGTAT | 0.0541
GAATATGC | 0.0001
GCAAGCCA | -0.181
TAAGATCA | 0.0811
GATACGGA | 0.0867
CTACGGAC | -0.138
ATTGGCAC | -0.122
GAGCGTTA | 0.113
AGACACCA | -0.0381
AGAGTACA | 0.121
CCTGTTGA | 0.0115
ACCCCGCA | -0.0412
AAAAACAG | 0.00845
AGGCAAAT | 0.055
GACTTGCA | -0.0525
AGCAATAA | -0.0947
AACGGAAC | 0.0665
TCGACCCA | -0.0614
ATGCATGC | -0.0577

Sequence | PBM E-score
AGATCGCT | -0.0143
ATTCAAAT | 0.214
CTCGCTAA | 0.103
GCCAGACA | -0.0659
AGTGCTGG | -0.0111
CTACTGAC | -0.13
ATACCGGG | 0.0699
GGTGTCAC | -0.132
AGGCGAGG | -0.2
ACAAACTG | 0.0733
ATGTTATC | 0.189
CGGGAAGA | 0.189
ATTCTCTG | -0.0232
CGCCTCCG | -0.125
AGTTATCA | 0.174
GAGCTATA | -0.196
AGAACTAT | 0.275
TGTATCAA | 0.23
ACCCGAGC | -0.0428
CAAGACAG | -0.0571
AGACGGTG | -0.193
CAGCAATG | -0.0957
CTACCTTC | 0.03
ACGAGTTC | 0.103
CCCAGCGA | -0.202

Sequence | PBM E-score
ACACAGAT | 0.139
GGCCAACA | -0.172
ATGCCGAC | -0.0002
GCCGCCGC | -0.292
CTACTAAC | 0.222
ACCTCTCA | -0.215
ATGGGGAC | -0.206
CAAAGACG | -0.11
CATGATTA | 0.261
AACGCCAC | -0.2
CTCATCGA | -0.0576
AAAGCAGC | 0.134
ACTACCCG | -0.029
GAACGCGC | -0.113
AGAGTGGA | 0.0367
GCGACGAC | -0.0965
GAGACCTA | -0.16
GCCGTTCA | -0.0409
CCATAGAG | -0.0952
ACCACAAT | 0.0398
GCGGATCC | -0.272
CCACAAGG | -0.118
AATTCATG | 0.249
CCACTAGC | -0.109
CACCGATC | -0.0417

Sequence | PBM E-score
CAATGCCC | -0.253
ACTCACAA | 0.161
AGGTGAAA | 0.205
AGATCTAA | -0.0219
AGAGTGCG | -0.0358
GCCCGTAA | -0.0331
CAGAGAAG | -0.017
GGAATAGA | 0.16
AAGGGTAT | 0.12
GAAGTTGA | 0.0406
CGACCGAA | -0.0989
ATGAACAG | 0.06
ACTGACAG | 0.055
CAGGCGTC | -0.181
CCATAATC | 0.113
AGGCTGAC | -0.165
AAGCTAGC | 0.00549
ATGCCGTG | -0.0779
ACGAGAGT | -0.0281
CAATCGAC | 0.0305
AGGTTTCC | -0.128
AGCTTAGC | -0.152
AAAGCTGA | -0.066
GTTATTTA | 0.258
ATGAATAG | 0.153

Sequence | PBM E-score
CTCCTCCA | -0.0825
AGAGGAAC | 0.0567
CCCTTAGG | -0.0585
GTGAAAAA | 0.19
AGCGTTAG | -0.027
AGTATCAT | 0.216
AGTCTTTA | 0.0341
ATAGATAG | 0.066
ACGCACAT | 0.0191
TACGGGCA | -0.0654
CCAAGACA | 0.122
CTCGCGAC | -0.056
AGCTGGAA | -0.0139
CTTGACTA | 0.011
CCGAAACA | 0.115
ACACGTCA | -0.0263
ATTCCTCA | 0.124
AACCAGTC | 0.0654
AGGCGTGG | -0.383
CCAAGCAG | -0.145
AACTAGCG | 0.144
AATCTGTG | 0.0911

From the supplement of paper PMC3334620
